# ± gives the standard deviation of the averaged measurements. The full ranking holds about 33,000 sequences; the median of “E-score (dimensionless, -0.5 to 0.5)” is about -0.049, and the highest 2% start at about 0.37. This is one part of the list.
# Test system: T1, PmTbr T-box DNA-binding domain (GST fusion)
# T1 sequence: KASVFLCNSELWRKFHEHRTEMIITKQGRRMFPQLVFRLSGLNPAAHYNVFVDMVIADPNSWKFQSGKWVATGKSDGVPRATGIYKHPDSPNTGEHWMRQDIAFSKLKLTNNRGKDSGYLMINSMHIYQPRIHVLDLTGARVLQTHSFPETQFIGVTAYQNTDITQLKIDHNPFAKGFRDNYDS
# Test: PBM E-score of 8-mer (E-score (dimensionless, -0.5 to 0.5)); Tbr is Tbrain of the sea star Patiria miniata (Pm) or the sea urchin Strongylocentrotus purpuratus (Sp); higher = stronger binding preference; most listed sequences are background and not binding sites
# Settings: the construct has about 5 more residues each side
# In short: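 Each ungapped 8-mer received an enrichment E-score from the Universal PBM Analysis Suite, averaged over duplicate arrays. The proteins were Tbr T-box DNA-binding domains, covering the whole T-box plus about five flanking residues, fused to GST and expressed in BL21 E. coli at 20 °C before glutathione affinity purification. Universal Agilent oligonucleotide arrays were made double-stranded by primer extension and incubated with 200 nM protein in PBS (pH 7.5). The arrays were then scanned and quantified, and every 8-mer was scored from probe intensities.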
row,Sequence,PBM E-score of 8-mer
1,GGGCAATA,-0.312 ± 0.0056
2,ATATCAGC,-0.11 ± 0.024
3,AACGTGTA,0.156 ± 0.04
4,AAAGACGG,-0.0971 ± 0.01
5,CGGGCAGA,-0.0643 ± 0.047
6,CACTCAAA,-0.0491 ± 0.075
7,GAACAACA,0.0956 ± 0.026
8,AGAAGACG,-0.166 ± 0.091
9,CTTTCTAC,-0.0511 ± 0.013
10,CAGTGCGG,-0.0389 ± 0.1
11,CTAAACTC,-0.176 ± 0.043
12,TCATTACA,-0.0339 ± 0.0086
13,ATTACATA,-0.16 ± 0.038
14,AGATTACT,0.0295 ± 0.0091
15,CCACCTCG,0.282 ± 0.0037
16,ACTGCCTA,-0.156 ± 0.037
17,AAAAGTAA,-0.176 ± 0.043
18,AGGTGAAT,-0.00779 ± 0.047
19,ACATCCAG,0.0759 ± 0.017
20,CCGAAAGG,-0.112 ± 0.0043
21,CACGACGG,0.0597 ± 0.069
22,CGATAGCC,-0.117 ± 0.0063
23,CCTGTTCG,0.175 ± 0.002
24,TGTATGAA,-0.183 ± 0.0043
25,AACTTCAT,-0.0586 ± 0.031

row,Sequence,PBM E-score of 8-mer
1,GGGATTCA,-0.1647 ± 0.0013
2,CTCGTATA,-0.193 ± 0.069
3,CCAATGCA,-0.209 ± 0.028
4,AGAGAAAC,-0.157 ± 0.043
5,CTGGGGCA,-0.0331 ± 0.031
6,TAACGTCA,-0.0324 ± 0.0079
7,AGAACCCC,-0.0878 ± 0.0035
8,GTAAACGA,-0.148 ± 0.026
9,AACCGGCC,-0.283 ± 0.012
10,GTGACTGA,0.263 ± 0.032
11,GCGAGAAA,0.356 ± 0.034
12,AAGGCGCA,0.165 ± 0.044
13,CAATGAGG,-0.0925 ± 0.0019
14,AGTGCTAT,0.27 ± 0.0047
15,CAATAGGC,-0.098 ± 0.051
16,CTGTATGC,-0.0662 ± 0.0046
17,GGGGGGAA,-0.175 ± 0.05
18,GAAAGATC,-0.168 ± 0.036
19,GAGGGGCA,-0.0547 ± 0.1
20,GGAAGGTA,-0.0818 ± 0.022
21,GAGTAACC,-0.257 ± 0.032
22,ATGACTAC,-0.209 ± 0.0029
23,CTAAGCGA,0.0244 ± 0.053
24,CCAGTAAG,0.0168 ± 0.025
25,GCTCCTAC,0.0182 ± 0.0046

row,Sequence,PBM E-score of 8-mer
1,GCGCAGCA,-0.194 ± 0.069
2,AGCTAGGC,0.00842 ± 0.052
3,ACGTCCCA,0.0569 ± 0.037
4,CATGTCGC,0.267 ± 0.011
5,GGTACGGA,-0.104 ± 0.044
6,ACTGCGAA,0.315 ± 0.012
7,AGGGTAGA,-0.12 ± 0.02
8,ACAAGATA,-0.215 ± 0.052
9,CGCCAACG,0.2304 ± 0.00079
10,AGCCCCCG,-0.145 ± 0.03
11,GGACGGAA,-0.119 ± 0.043
12,GGTTGCCA,0.0405 ± 0.031
13,GCAGCGAC,0.0877 ± 0.0075
14,ACTGGCGC,0.122 ± 0.035
15,CCCTTCTA,-0.00377 ± 0.028
16,CGCGGACG,0.17 ± 0.035
17,GGCACAGA,-0.101 ± 0.023
18,AGCCGCCT,-0.0512 ± 0.017
19,ACTCTGAT,-0.211 ± 0.084
20,ACGCTTTG,0.137 ± 0.0018
21,GCTATCCC,-0.125 ± 0.021
22,AGCGTAAG,-0.0533 ± 0.049
23,CAGCCTAG,0.00532 ± 0.024
24,AAGCAAAT,-0.216 ± 0.011
25,ATCACGAG,0.167 ± 0.054

row,Sequence,PBM E-score of 8-mer
1,AGGACCAG,-0.286 ± 0.038
2,ATCGTTGC,0.0354 ± 0.0053
3,ATTGAACG,-0.258 ± 0.015
4,CTGGTAAA,-0.0095 ± 0.053
5,TCAATCGA,-0.104 ± 0.049
6,ATCCCAAA,-0.226 ± 0.015
7,AGAAACAG,-0.136 ± 0.075
8,CAGAGTGG,-0.211 ± 0.0088
9,AGACGCCT,0.049 ± 0.019
10,GATTACCA,-0.168 ± 0.028
11,AAAGTAGT,-0.113 ± 0.039
12,CATTAGGG,-0.194 ± 0.027
13,ACGTAGTG,0.037 ± 0.02
14,ACATCACA,0.322 ± 0.024
15,AACTACTA,0.0568 ± 0.043
16,GCGTCAGA,0.182 ± 0.027
17,GCCGATTA,-0.0069 ± 0.053
18,CCAGGCCC,-0.287 ± 0.0065
19,ATTGCCCC,-0.1976 ± 0.0019
20,CCTACTAC,-0.0602 ± 0.0068
21,TAACTGGA,-0.194 ± 0.023
22,GCCGTGCA,-0.144 ± 0.035
23,GGCCTACC,-0.0189 ± 0.018
24,ATGAGTAC,-0.00545 ± 0.022
25,CCTAGGTC,0.0715 ± 0.009

row,Sequence,PBM E-score of 8-mer
1,CCTCGTAC,-0.154 ± 0.07
2,AACTTTTA,-0.0469 ± 0.11
3,CTGTCAAG,0.2006 ± 0.0012
4,GCTTTACC,-0.126 ± 0.066
5,CCTCAAAA,-0.147 ± 0.0033
6,CTGACAAG,0.217 ± 0.011
7,GGAACCCC,-0.246 ± 0.031
8,CTAATATA,-0.229 ± 0.047
9,AAGACGCC,-0.0908 ± 0.029
10,AGGCCAGG,-0.202 ± 0.098
11,ATCAAAAG,-0.133 ± 0.097
12,CACCTGCA,0.4 ± 0.0099
13,GTAGCCGA,-0.142 ± 0.028
14,ACCCTTTC,-0.198 ± 0.077
15,ACAGACGC,0.0551 ± 0.00085
16,GAACGTGA,0.135 ± 0.043
17,GCCTCGTA,-0.277 ± 0.052
18,CATGCTAA,0.159 ± 0.055
19,GACGCTCC,-0.136 ± 0.015
20,GGGCGCCC,0.0748 ± 0.0076
21,CGTCGGAG,-0.0302 ± 0.0062
22,CTAATGCA,0.0895 ± 0.026
23,CACGTCTC,0.151 ± 0.0079
24,ATAAACCG,-0.202 ± 0.034
25,GCCTGAAA,-0.0829 ± 0.0037

row,Sequence,PBM E-score of 8-mer
1,GCGCACCC,0.126 ± 0.062
2,ACACACGG,-0.0763 ± 0.019
3,AACCGACC,0.101 ± 0.057
4,GAATAACC,-0.203 ± 0.031
5,ATGCTGAG,-0.156 ± 0.081
6,CAACGCAG,0.0396 ± 0.037
7,ACTGGTCT,-0.327 ± 0.025
8,CGCAGTTA,0.045 ± 0.0081
9,AATAAGCC,-0.234 ± 0.074
10,CCGCCTGA,-0.318 ± 0.05
11,ATGAGCAT,-0.153 ± 0.016
12,CAGGTTTA,-0.00129 ± 0.013
13,AGCGATGA,0.0218 ± 0.011
14,ATGAGAAA,-0.182 ± 0.17
15,TAAGACGA,-0.111 ± 0.062
16,CAGATATC,-0.0709 ± 0.075
17,ACGGTGCC,0.158 ± 0.032
18,ACAAAGTC,0.0973 ± 0.012
19,ACTAGACT,-0.0775 ± 0.062
20,AGTGTCAA,0.447 ± 0.0063
21,ACCTAGGT,0.294 ± 0.029
22,CCCGCACG,0.0427 ± 0.056
23,CCGCTGAC,0.079 ± 0.045
24,AGTGAAAA,0.134 ± 0.11
25,GAATCACC,0.0704 ± 0.032

row,Sequence,PBM E-score of 8-mer
1,GTATCGCA,0.209 ± 0.0043
2,CGGGACCG,-0.137 ± 0.0073
3,ATATGTAA,-0.152 ± 0.0082
4,ATAATGGG,-0.149 ± 0.033
5,CAAGATAA,-0.307 ± 0.004
6,CGGACGAC,-0.294 ± 0.061
7,ACTCCGTA,-0.132 ± 0.018
8,AGACCAGC,-0.0256 ± 0.059
9,AGAGATCA,-0.0989 ± 0.0019
10,CTGTAATC,-0.0671 ± 0.092
11,ATCGAAAT,-0.0394 ± 0.029
12,ACGGAACT,-0.0989 ± 0.021
13,CAAGTTCG,0.0993 ± 0.029
14,ATCGACTA,0.0954 ± 0.04
15,CAAGATGA,-0.0147 ± 0.081
16,ACCCAAGG,-0.125 ± 0.053
17,TAACGGGA,0.169 ± 0.017
18,TATCAGCA,0.0271 ± 0.025
19,GCTCCGAC,0.0555 ± 0.055
20,ATTCTGCA,-0.137 ± 0.064
21,ATCTGGGC,-0.0886 ± 0.12
22,ATGCGCCA,0.017 ± 0.011

# From the supplement of paper PMC4166925
